# Assay results published in ChEMBL document CHEMBL4888484, “Replenishing the malaria drug discovery pipeline: Screening and hit evaluation of the MMV Hit Generation Library 1 (HGL1) against asexual blood stage Plasmodium falciparum ,using a nano luciferase reporter read-out” (2022).
# In all, about 150,000 compounds went through this assay and about 540 (0.36%) showed an effect of 50% or more. Some of the results follow.
# Test system: Plasmodium falciparum
# Test: Primary screen in NF54 nanoGlo assay, in single point, at 2uM, 72h; a lower Z score goes with more inhibition
# Format: functional, Erythrocyte
# Details: timepoint 72 hour
Structure (SMILES),% Inhibition [%],Z score
C[C@H](NC(=O)c1ccoc1)C(=O)Nc1ncccc1O,-4,0.37
Fc1ccc(-c2cc(-c3ccc(Br)cc3)nc3c2COc2ccccc2-3)cc1,-8,0.91
C=CCN1CC[C@H](N(C)Cc2cn(C)nn2)C1=O,5,-0.46
CCc1nc(Cc2noc(CC3CCOC(CC)C3)n2)cs1 (stereo not drawn),-9,1.8
CN(C)Cc1ccc(-c2nc3c([nH]2)CCCNC3=O)cc1,-1,0.1
Cc1ccc(-c2nnc(N3CCC(C(=O)NCc4ccccc4C)CC3)o2)cc1,-2,0.3
Cc1cccc2c1C[C@H](NC(=O)c1ccnc(C3CC3)c1)CO2,-5,0.79
Cc1cc(C(=O)N2CC[C@H]3[C@H](CCC(=O)N3CCc3cccs3)C2)on1,-11,1.06
Cn1c(O)c(C(=O)Nn2c(Cc3ccccc3)nc3ccccc3c2=O)c(=O)c2ccccc21,-11,0.96
O=C(CCc1cc2n(n1)CCCN(Cc1ccccc1)C2)NC1CCCC1,-11,1.07
Cc1noc(C)c1CO[C@H]1COCC[C@@H]1NC(=O)c1cn[nH]c1,-10,1.93
COc1cc(C2CN(C(=O)NC(C)C)CC2C(=O)N2CCOCC2)cc(OC)c1OC (stereo not drawn),-6,0.67
COCCNC(=O)c1ccc(Nc2c(Oc3ccc(F)cc3)cnn(-c3ccc(F)cc3)c2=O)cc1,1,-0.18
Cc1cc(CC(=O)N[C@H]2CCCN(c3ccc(Cl)cc3Cl)C2)n[nH]1,7,-1.13
CCN(CC)[C@@H](CNC(=O)COC1CCCC1)c1ccco1,-9,1.28
CC(NCC1CCCn2ccnc21)c1ccc(F)c(F)c1 (stereo not drawn),-8,1.07
COc1ncccc1C(=O)N1CC(Oc2cc(C)nc3ncnn23)C1,13,-1.74
O=C(NC1CCCCCCC1)C1=Cc2ccccc2OC1,-20,1.87
CCc1cc(C#N)ccc1NC(=O)N1CCNC(=O)[C@@H]1Cc1c[nH]cn1,-13,1.13
O=S(=O)(Oc1cccc2cccnc12)c1ccc(Br)c2ccccc12,-47,5.51
CC(C)N1CCO[C@@H](CC(=O)NCC2(Cn3ccnc3)CC2)C1,-3,0.49
CN1CCC[C@H]1C(=O)N1CCC(C(=O)NC2CCCCCC2)CC1,-9,1.52
CCC(=O)Nc1cccc(-c2noc([C@H]3CCCN(C(=O)c4ccc(F)c(Cl)c4)C3)n2)c1,-9,1.08
Cc1ccc(C(=O)c2ccc(Br)cc2)cc1S(=O)(=O)Nc1ccccn1,-10,1.23
Cc1ccc(NC(=O)c2oc(CO)cc2C)c(C)n1,-2,0.41
Cc1ccc(NS(=O)(=O)c2ccc(-c3cnc(C4CCC4)o3)s2)c(Cl)c1,-8,0.88
Cn1c(=O)sc2cc(NC(=O)Cc3ccccc3Cl)ccc21,-5,0.58

Structure (SMILES),% Inhibition [%],Z score
c1cc(CN2CCC[C@H]2c2nc(C3CC3)no2)c2nonc2c1,-6,0.89
CCCCN1C(=O)C2C(CC(C)C)NC3(C(=O)Nc4ccc(Cl)cc43)C2C1=O (stereo not drawn),-20,2.56
Cc1cc(CS(=O)(=O)Cc2noc(-c3cccs3)n2)no1,-11,2.14
COc1ccc(CN2CC[C@H](N(CCCN3CCOCC3)S(C)(=O)=O)C2)cc1C,-2,0.22
COc1cccc(C(=O)N2CCN(C(=O)Cn3cc(Cl)cn3)CC2)c1,-4,0.42
OCC(F)(F)CN1CCN(c2nc3ccccc3n3cncc23)CC1,3,-0.5
O=S1(=O)CC[C@H](NCc2cccc3ccccc23)C1,-15,2.05
COc1cc(Br)cc(F)c1C#N,-3,0.33
COc1cc2c(c(-c3nc(OC)c4cnn(-c5ccccc5)c4n3)c1)NC(C)(C)C=C2C,-10,1.3
Cc1oc(C(C)(C)C)cc1CN1CC[C@H](NS(C)(=O)=O)C1,-7,0.88
CCCOc1ccc([C@@H](N)C(=O)OCC)cc1,-9,1.1
CCc1nc(C)sc1C(=O)NC1(COC)CCCC1,-6,0.77
O=C(NCc1ccc(NC(=O)c2ccc(F)cc2)cc1)C1=COCC1,-10,1.35
C[C@@H](CNC(=O)N1CCCC1(C)C)CN(C)C(=O)OC(C)(C)C,1,-0.11
COc1ccccc1Cn1cnc2c1c(=O)n(C1CCCCC1)c(=O)n2-c1ccccc1Cl,69,-6.45
Cc1ccccc1C(=O)N[C@@H]1CCCC[C@H]1NC(=O)C1CCCN(C(=O)c2cccc(F)c2)C1 (stereo partly drawn),-3,0.26
O=C(NCc1nccs1)c1sccc1OC(F)F,-5,0.44
COc1ccccc1OCCN1C[C@@H](C(=O)NCC2CCOCC2)CC1=O,-5,0.7
O=C1CC2(CCN(c3cnc4ccc(Cl)cc4n3)CC2)CN1,-4,0.54
O=S(=O)(c1cccnc1)N1CCCN(C2CCC2)CC1,-11,1.96
CN(c1ccc(Cl)cn1)S(C)(=O)=O,-4,0.57
NC(=O)Cc1nc(CCCn2cccn2)n(Cc2ccccc2Cl)n1,1,-0.17
CC(C)c1ocnc1CN[C@@H](C)c1ccc(S(C)(=O)=O)c(F)c1,-1,0.23
Cc1cc(C)cc(OCC(=O)Nc2nc(C)ns2)c1,-14,1.93
O=C(Cc1cccc(Cl)c1)N[C@@H]1C[C@H]2OCC[C@@H]12,4,-0.57
COCC1(NC(=O)Cc2c(C)nn(CC(F)(F)F)c2C)CCCC1,34,-3.84
C#CCCC1(CCC(=O)N2CCC[C@H]2c2ccc(OC)c(F)c2)N=N1,-15,1.89
